# From the supplement of paper PMC8728848
# The other results are listed elsewhere or left out.
# Assays:
# Experiment in all cases: glycan array binding signal (z-score within array); higher = stronger binding
# Conditions in all cases: glycan notation: IUPAC condensed, linker removed
# [1] = biological target: GlcNAc(b1-3)Man
# Method in brief: (§1)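 The binding signal is a Z-score computed within each array and averaged over linkers. Arrays of the same protein sequence at different concentrations or buffers were also averaged together. Data originate from 3228 arrays in the Consortium for Functional Glycomics database, kept only where the protein sequence was available.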
# [2] = biological target: GlcNAc(b1-3)[GlcNAc(b1-4)][GlcNAc(b1-6)]GlcNAc
# Method in brief: as §1
# [3] = biological target: GlcNAc(b1-3)[GlcNAc(b1-6)]Gal(b1-4)GlcNAc
# Method in brief: as §1
# [4] = biological target: GlcNAc(b1-3)[GlcNAc(b1-6)]GalNAc
# Method in brief: as §1
# [5] = biological target: GlcNAc(b1-4)Gal(b1-4)GlcNAc
# Method in brief: as §1
# [6] = biological target: GlcNAc(b1-4)GlcNAc
# Method in brief: as §1
# [7] = biological target: GlcNAc(b1-4)GlcNAc(b1-4)GlcNAc
# Method in brief: as §1
# [8] = biological target: GlcNAc(b1-4)GlcNAc(b1-4)GlcNAc(b1-4)GlcNAc(b1-4)GlcNAc
# Method in brief: as §1
# [9] = biological target: GlcNAc(b1-4)GlcNAc(b1-4)GlcNAc(b1-4)GlcNAc(b1-4)GlcNAc(b1-4)GlcNAc
# Method in brief: as §1
# [10] = biological target: GlcNAc(b1-4)[GlcNAc(b1-6)]GalNAc
# Method in brief: as §1
# [11] = biological target: GlcNAc(b1-6)Gal(b1-4)GlcNAc
# Method in brief: as §1
# [12] = biological target: GlcNAc(b1-6)GalNAc
# Method in brief: as §1
# [13] = biological target: GlcNAc6S(b1-3)Gal(b1-4)GlcNAc
# Method in brief: as §1
# [14] = biological target: Kdn(a2-3)Gal(b1-3)GalNAc
# Method in brief: as §1
# [15] = biological target: Kdn(a2-3)Gal(b1-3)GlcNAc
# Method in brief: as §1
# [16] = biological target: Kdn(a2-3)Gal(b1-4)Glc
# Method in brief: as §1
# [17] = biological target: Kdn(a2-3)Gal(b1-4)GlcNAc
# Method in brief: as §1
# [18] = biological target: Kdn(a2-3)Gal(b1-4)[Fuc(a1-3)]GlcNAc
# Method in brief: as §1
# [19] = biological target: Kdn(a2-6)Gal(b1-4)GlcNAc
# Method in brief: as §1
# [20] = biological target: Man(a1-2)Man(a1-2)Man(a1-3)Man
# Method in brief: as §1
# [21] = biological target: Man(a1-2)Man(a1-2)Man(a1-6)[Man(a1-3)]Man
# Method in brief: as §1
# [22] = biological target: Man(a1-2)Man(a1-3)Man
# Method in brief: as §1
# [23] = biological target: Man(a1-2)Man(a1-3)[Man(a1-2)Man(a1-6)]Man
# Method in brief: as §1
binder,measurement,setting,value
EULS2 M4 (Oryza sativa) (protein) MVYCRANPNYAMTARNGAVVLAPANPKDEYQHWIKDMRWSTSIKDEEGYPAFALVNKATGQAIKHSLGQSHPVRLVPYNPEVMDESVLWTESRDVGNGFRCIRMVNNIYLNFDAFHGDKYHGGVRDGTDIVLWKWCEGDSLRWKIQPYYILEQKLISEEDLNSAVDHHHHHH,glycan array binding signal (z-score),[1],1.37
same,glycan array binding signal (z-score),[2],-0.222
same,glycan array binding signal (z-score),[3],0.27
same,glycan array binding signal (z-score),[4],-0.301
same,glycan array binding signal (z-score),[5],1.09
same,glycan array binding signal (z-score),[6],-0.495
same,glycan array binding signal (z-score),[7],-0.101
same,glycan array binding signal (z-score),[8],-0.557
same,glycan array binding signal (z-score),[9],-0.23
same,glycan array binding signal (z-score),[10],0.115
same,glycan array binding signal (z-score),[11],-0.589
same,glycan array binding signal (z-score),[12],-0.405
same,glycan array binding signal (z-score),[13],-0.436
same,glycan array binding signal (z-score),[14],-0.641
same,glycan array binding signal (z-score),[15],-0.378
same,glycan array binding signal (z-score),[16],-0.413
same,glycan array binding signal (z-score),[17],-0.2
same,glycan array binding signal (z-score),[18],-0.169
same,glycan array binding signal (z-score),[19],-0.451
same,glycan array binding signal (z-score),[20],-0.573
same,glycan array binding signal (z-score),[21],0.149
same,glycan array binding signal (z-score),[22],-0.18
same,glycan array binding signal (z-score),[23],-0.33
